# Results reported in the supplement of paper PMC11417369.
# ± gives the standard deviation of the averaged measurements. The list shows a part of the results.
# Test system: PfAP2-I AP2 domain 3 (GST-tagged)
# Assay: gcPBM binding intensity (ln(normalized median fluorescence intensity)); higher = stronger DNA binding
# Outline: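 An Agilent 4 × 180k array of primer-extended double-stranded 36-bp intergenic genomic probes, with negative controls, was incubated for 1 h with GST-tagged P. falciparum DNA-binding domains expressed in E. coli. Alexa488 anti-GST antibody detected bound protein, scanned at 488 nm. Binding intensity is the highest Masliner-normalised natural-log median intensity across replicate spots of either probe orientation.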
row,Sequence,gcPBM binding intensity (ln)
1,AAAAAAAAAAAAAAAACACACATTTATAGTATATAT [CACACA_site1194],8.53 ± 0.28
2,GATTTATTTCATATCACACATTTTGGCTATTTTGTG [CACACA_site5793],7.65 ± 0.67
3,CCATTTGGTATTATATGTACATATAATTTTTTTTTT [XGTACX_site157],7.89 ± 0.49
4,AATCCTTCATATGTAGTGCATATTAACAAAATAAAA [GTGCAC_site9500],9.9 ± 0.27
5,ATGAAATATTTATTTGTGCACTTAATTTGTTGGAAA,11.2 ± 0.21
6,GTATATATGTATATGTGTACATATATTTTATAATAT [XGTACX_site5703],7.79 ± 0.33
7,AAAAACGAAAAAAATACACACCTGAAAAGATATGTA [CACACA_site4644],7.21 ± 0.58
8,GGAATAACCAGACACACACACACATATATATATATA [CACACA_site3541],9.37 ± 0.27
9,TATATATAATATTATACACACATATCTGCATAATAT [CACACA_site4202],8.13 ± 0.49
10,AGATCATAATATTATACACACATTATATATATGTAA [CACACA_site8419],7.89 ± 0.42
11,TGGAAAGTTATTAACACACACATATAAATATTTATA [CACACA_site6173],7.69 ± 0.4
12,AAGTACCATATAGGCACACATATATATATATATATA [CACACA_site3282],9.47 ± 0.6
13,AAAAACCATTCGCACACACACATAATCTATAATATA [CACACA_site6782],8.32 ± 0.48
14,AATATATATATTAAATGTACATTACATAATTATATA [XGTACX_site3450],7.66 ± 0.2
15,TAAATGAAAATATGTACACACTTGAAAACTTTTATG [CACACA_site7388],7.84 ± 0.45
16,TGCAACAAAATAAACACACACACACTAGCACAAAAA [CACACA_site5805],8.36 ± 0.48
17,TTTTTTTTTTTAGACACATGCATTTTTATAATTTTC [TGCATGCA_site843],8.1 ± 0.78
18,AATATTTTGATGTGTACACATTAATACAGTTTTACA [CACACA_site5711],8.21 ± 0.29
19,TATATATATTAACTTGTGCGCAAAAAGATATAATTT [GTGCAC_site9672],8.95 ± 0.38
20,ATATGTATGTATGTCTCAAAATTTCATATTATATTA [CACACA_negctrl_site784],7.43 ± 0.56
21,TAGGATATTGAATAATGTACTTTATATATAATATAA [XGTACX_site7828],7.61 ± 0.42
22,AAGAAATAAAAAAAACGTACATATATACATACATAC [XGTACX_site3980],8.58 ± 0.44
23,AACATATTAATGTACACACACCCACGCACAAACAAA [CACACA_site7320],8.56 ± 0.2

row,Sequence,gcPBM binding intensity (ln)
1,TAGGAGAAAAAAAAAAGTACCCACAACTATTATACT [XGTACX_site8195],7.92 ± 0.46
2,TGGTAATATCGATTCACACATATCAAAATAAAAAAA [CACACA_site4196],7.72 ± 0.49
3,TCCTAATGCTACCACACACACAAAAACAAATAATAA [CACACA_site2610],8.47 ± 0.099
4,TTATAAGATTTATGTACACACATATACACAGCTCTA [CACACA_site6481],7.76 ± 0.5
5,AGTATTATATATATATGTACATAATATACATATATA [XGTACX_site8514],7.61 ± 0.4
6,TAATTAATTTACATTTTAATTTTATACAAAATTTAT [CACACA_negctrl_site830],7.35 ± 0.4
7,ACATATTTATATTCTACACACTTATACTATAATACA [CACACA_site7204],8.05 ± 0.49
8,GTTATACGCATCAACACACACATACAACGTGGTGTA [CACACA_site1188],7.62 ± 0.46
9,ATGGAACTTAAAAATTGTACACATAAAATGGAGAAG [XGTACX_site1823],8.13 ± 0.7
10,GCTATAAATACAGACGCACACATATACATACAGATA [CACACA_site5778],8.22 ± 0.4
11,TGTTATTAGAAAAATGCACACCAAAAAAAAAAAAAA [CACACA_site8802],8.7 ± 0.13
12,ATATACATAATATATAATATAAATATATATATGGAA [CACACA_negctrl_site906],7.3 ± 0.26
13,TATTAAAATATTTATACACACATAATTTTGATAAAT [CACACA_site4486],7.72 ± 0.35
14,TGTCATTCCTCTTATTGTACAAAAATATTATAATAT [XGTACX_site1134],8.21 ± 0.41
15,TATTTAAATTTGTATAATGGACGAATTATATAGAAA [GTGCAC_negctrl_site650],7.8 ± 0.64
16,CCCACAGACGGACACACACACATATATATATATATA [CACACA_site4351],9.43 ± 0.35
17,TCAAAACATTATTCCATACACACCATACTTTTTAAT [CACACA_site2770],8.02 ± 0.71
18,TTGAATTATAAGAATAAACACACAAGCTTAAAAAAA [CACACA_site8318],7.61 ± 0.68
19,TTTAATTTTTTTTATAGTACATAAAAAATAAAAAAA [XGTACX_site5631],7.72 ± 0.28
20,TTTATTTGTGCATATACACACTTAAATATGTTTATT [CACACA_site7772],9.405 ± 0.035
21,TACAACCTTATAATTAGTACTTAGTTATGCTGTAAA [XGTACX_site6052],7.5 ± 0.52
22,ACATAAAATTGGAGCAAACACACAAGGTTGAAATTA [CACACA_site505],7.66 ± 0.66
23,TTTGTTATGGTTTTCTCACACATATATATATATATA [CACACA_site4617],9.47 ± 0.47

row,Sequence,gcPBM binding intensity (ln)
1,CCGATATAATGGAAAACACACAAAAGATATTTATAT [CACACA_site7293],7.71 ± 1
2,ATTATAATACTTTGTATGCACTAATCAATTATTAAA,10.1 ± 0.38
3,CTGTAAAAAATATAAACACACATAGAAATATATAAA [CACACA_site340],7.79 ± 0.58
4,CCTCATAAGTTCTTATGTACGTATTGTTCACCTTTA [XGTACX_site6640],7.83 ± 0.64
5,TTAAGAAACAAAGAAAGTACACAACATAATATAGAA [XGTACX_site477],8.04 ± 0.83
6,TTAATAATAAAAAGGAGTACACTAATATACTATAAA [XGTACX_site2346],7.99 ± 0.16
7,AATAAAATCATCTATACACACAAAAAAAATAAGAAA [CACACA_site2101],7.75 ± 0.59
8,ATATAATATATATATAAACACACAAAAAAAATTATA [CACACA_site8434],7.71 ± 0.6
9,AATAACCACGGACACACACACATATATATATATATA [CACACA_site5873],9.38 ± 0.25
10,ATTTATTAAAAGAAATGTACAGAAAATGTTTGGAAT [XGTACX_site7187],8.12 ± 0.49
11,AAGAAAAAAAAGATAATAATAATAATAATAAAATGA [TGCATGCA_negctrl_site398],7.62 ± 0.5
12,ATTTAATATCACAATATATTTTTTACCCTTATCAGC [CACACA_negctrl_site491],7.59 ± 0.76
13,TATATGGTATGTATTACACACATATCACATATATAT [CACACA_site3045],7.67 ± 0.49
14,GGAATGGTACATGATACACACACGCACATATAAATA [CACACA_site7581],7.99 ± 0.49
15,TGGTAAATTGAGAATCGTACATTAAAAAACATAAAA [XGTACX_site3253],7.88 ± 0.64
16,TTTTCTATATAGTGTTGTACATTATTGTGTAAAAAT [XGTACX_site3223],8.04 ± 0.3
17,ATATTTTATACTTGCACACAAAATATATTAAAATGG [CACACA_site5139],8.78 ± 0.23
18,ATAAAATTGGAGCAAACACACAAGGTTGAAATTAAC [CACACA_site506],7.99 ± 0.81
19,TTATGTTGTAAATGCACACATACAAATACATATACA [CACACA_site1368],9.79 ± 0.43
20,TACAATATAAAATACACACGCACACCGAAAAAAAAA [CACACA_site5865],8.24 ± 0.64
21,AAAGAAAAAGAAAAAGAAAAAATAAAATAAAATAAA [CACACA_negctrl_site872],7.75 ± 1.3
22,TATATATTATATATATGTACTTATTCATATATATAA [XGTACX_site3860],7.54 ± 0.16
23,CTTTAATATATTTAAGTGCAAAACTAATATGTAAAG,9.62 ± 0.13

row,Sequence,gcPBM binding intensity (ln)
1,TATTTAAAAACAAAAAGTACTAATATATATTTATAC [XGTACX_site1422],7.68 ± 0.46
2,GACTGAACAACATAATGTACATTTATAAGTATATAT [XGTACX_site3813],8 ± 0.42
3,AGTAGTATGGAGAAAAGTACATAGTATCTGATAACC [XGTACX_site2040],8.12 ± 0.79
4,TAAAAAATAAAATACACACACATATATATATATATA [CACACA_site1323],9.33 ± 0.2
5,AAAAAAATTAAAGATTGTACTTGATTTTTCATTTTA [XGTACX_site6685],7.24 ± 0.48
6,GAGGGAAAAAATAATCGTACAAAGAAAAAAAAAAAT [XGTACX_site7361],7.99 ± 0.5
7,TATATTCTTTTTTTAACACACAAAAAAAATAAAATA [CACACA_site1898],7.88 ± 0.26
8,AAAGAATTGTATAAAAGTACATATTTGTTTGTTTTA [XGTACX_site7380],7.38 ± 0.47
9,TTTTTTTCATAAATTAGGTAATGTCGCAGGGGGACA [TGCATGCA_negctrl_site556],9.21 ± 0.37
10,ATATACAAAGAAGCAGTGCATATTTTCTTATTTATG [GTGCAC_site9567],8.99 ± 0.43
11,TGAAAGAATAGAATGAGTACTAATTTAAATTACACT [XGTACX_site1120],7.79 ± 0.55
12,TTGATTTCATTTTAAGTGCATAACTAATATTATATA [GTGCAC_site9713],9.81 ± 0.33
13,TTCTTTATATATTTTTGTACATATTTATTTTTAGAG [XGTACX_site6757],8.15 ± 0.64
14,CAAATACACCAACACACACACACAAAAAAAAAAAAA [CACACA_site514],8.14 ± 0.26
15,TAAGTACGACTTGACACACATACACATATATATATA [CACACA_site1286],9.38 ± 0.29
16,ATTACCAACAGATCTTGTACATATTAAAGCATCTTA [XGTACX_site2361],7.84 ± 0.57
17,TTTTTTGCTAAGTGTACACAAATGTTTATTAATTTA [CACACA_site5859],8.42 ± 0.27
18,GATAAAATGAGACCAGTGCATTATTAGTTGTACACC,11.3 ± 0.53
19,TGTGCTTATCCTAACACACACAACATATAAGAAAAA [CACACA_site3319],8.92 ± 0.24
20,AAAAAATAAAAAATATGTACACATTCAAAATTTTAC [XGTACX_site8479],7.81 ± 0.35
